{"source": "PubChem BioAssay AID686978", "about": "(National Center for Advancing Translational Sciences (NCATS), 2013)", "note": "The whole screen tested about 420,000 compounds, of which about 64,000 (15%) were called active. This list was built around the results that the source calls inconclusive (neither active nor inactive); the mix of calls is not that of the screen. Calls come from the whole dose curve; as a rule, active = well fitted inhibition curve with a large enough effect; inconclusive = small, poorly fitted or top-dose-only effect; inactive = flat fitted curve, though single readings scatter. Potencies of inconclusive entries are left out as doubtful fits. Peptide text beside a SMILES is read from it. % is set by controls: 0 for no effect and ±100 for the full control effect; potency is the fitted concentration of half-maximal effect; tags give direction and shape of the fitted curve."}
{"assay": "qHTS for Inhibitors of human tyrosyl-DNA phosphodiesterase 1 (TDP1): qHTS in cells in absence of CPT; note: nearly all actives have a fitted effect of over 55% in size", "conditions": "DT40 Tdp1-/- hTDP1 cells, no CPT, ATP luminescence, 48 h; activity change, negative = growth inhibition: at 46.2 µM (top of the series) unless noted", "summary_of_the_method": "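Stably hTDP1-transfected Tdp1-null chicken DT40 cells were treated with library compounds minus camptothecin and grown for at least 48 hr at 37 °C, after which cellular ATP was quantified by luminescence.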"}
{"compound": "Cc1nnc(SCC(=O)Nc2nonc2C)s1", "activity change, negative = growth inhibition": "inactive: -13%"}
{"compound": "O=C(Nc1cccc2nsnc12)c1cccnc1Cl", "activity change, negative = growth inhibition": "inactive: -25.7%"}
{"compound": "CCc1nn(CC(=O)N2CCN(c3ccc(OC)cc3)CC2)c(=O)c2cc3sccc3n12", "activity change, negative = growth inhibition": "inactive: 0.586%"}
{"compound": "Cc1c(CC(=O)NCC(=O)NCC(=O)O)c(=O)oc2cc3oc4c(c3cc12)CCCC4", "activity change, negative = growth inhibition": "inconclusive: -27.4% [inhibitor]"}
{"compound": "O=C(CSC1=NCCS1)Nc1ccc(S(=O)(=O)N2CCCCCC2)cc1", "Potency": "inconclusive [inhibitor, single point]"}
{"compound": "CC1=NN(c2ccccc2)C(=O)/C1=C\\c1ccc(Br)s1", "Potency": "inconclusive [inhibitor, single point]"}
{"compound": "CC(=O)c1c(C)[nH]c(C(=O)/C(C#N)=C/c2cccc(C)c2)c1C", "activity change, negative = growth inhibition": "inactive: -22.9%"}
{"compound": "Cn1c(=O)cc(OCCCC(=O)NCc2ccc(F)cc2Cl)c2ccccc21", "Potency": "inconclusive [inhibitor, single point]"}
{"compound": "Fc1ccc(CNCc2cccc(Br)c2)cc1", "activity change, negative = growth inhibition": "inconclusive: -36.9% [inhibitor]"}
{"compound": "CC1CCN(S(=O)(=O)c2ccc(NC(=O)Cn3nnc(-c4ccccc4)n3)cc2)CC1", "Potency": "inconclusive [inhibitor, single point]"}
{"compound": "COc1ccc(CN2C(=O)C(Cc3ccccc3)Nc3ncnc(N4CCCCC4)c32)cc1", "note": "(stereo not given)", "Potency": "inconclusive [inhibitor, single point]"}
{"compound": "COc1ccc(NC(=S)N/N=C/c2ccc(F)cc2)cc1OC", "Potency": "inconclusive [inhibitor, single point]"}
{"compound": "COc1ccc(/C(O)=C(\\C#N)c2nc3ccccc3n2C)cc1OC", "activity change, negative = growth inhibition": "inactive: -27.8%"}
{"compound": "COc1cccc(CC(NC(C)=O)C(=O)NC2CCN(c3nnnn3-c3ccccc3)CC2)c1OC", "note": "(stereo not given)", "activity change, negative = growth inhibition": "inactive: 3.71%"}
{"compound": "O=C(CCn1c(=O)c2cccn2c2cccnc21)N1CCN(c2ccccc2)CC1", "Potency": "inconclusive [inhibitor, single point]"}
{"compound": "COc1cccc(CNc2nnnn2C)c1OC", "activity change, negative = growth inhibition": "inactive: -1.45%"}
{"compound": "O=C1CC(N2CCN(c3cccc(C(F)(F)F)c3)CC2)C(=O)N1c1ccccc1F", "note": "(stereo not given)", "Potency": "inconclusive [inhibitor, single point]"}
{"compound": "CCC1CCCCN1CCCNC(=O)c1ccc2nc(N3CCCCC3)sc2c1", "note": "(stereo not given)", "activity change, negative = growth inhibition": "inconclusive: -30.3% [inhibitor]"}
{"compound": "CN(Cc1cccc(F)c1)C(=O)C1CC(=O)N(Cc2ccco2)C1", "note": "(stereo not given)", "activity change, negative = growth inhibition": "inactive: -21.9%"}
{"compound": "Cc1cc(=O)[nH]c(N2CCN(C(c3ccccc3)c3ccccc3)CC2)n1", "Potency": "inconclusive [inhibitor, partial curve, poor fit]"}
{"compound": "COC(=O)c1c(NC(=O)CN(c2ccc(C)c(C)c2)S(C)(=O)=O)sc2c1CCCC2", "Potency": "inconclusive [inhibitor, single point]"}
{"compound": "c1ccc2c(c1)CCNC2c1ccncc1", "note": "(stereo not given)", "activity change, negative = growth inhibition": "inactive: -5.34%"}
{"compound": "Nc1ccc(CC(N)c2csc(Nc3nncc4ccccc34)n2)cc1", "note": "(stereo not given)", "Potency": "inconclusive [inhibitor, single point]"}
{"compound": "Fc1ccc(C2=CSC3=NCCN23)cc1", "activity change, negative = growth inhibition": "inactive: -10.5%"}
{"compound": "CC[C@H](C)[C@@H]1NC(=O)[C@H]([C@@H](C)CC)NC(=O)[C@@H](CC(C)C)NC(=O)[C@H](Cc2ccccc2)NC(=O)[C@H](Cc2ccccc2)NC(=O)[C@@H]2CCCN2C(=O)[C@@H]2CCCN2C(=O)[C@H](C(C)C)NC(=O)[C@H](CC(C)C)NC1=O", "note": "(HELM PEPTIDE1{F.F.[dL].I.I.L.V.P.P}$PEPTIDE1,PEPTIDE1,1:R1-9:R2$$$V2.0)", "Potency": "active: 8.2 µM"}
{"compound": "CCOc1ccccc1CN1C(=O)C2(OCCO2)c2ccccc21", "Potency": "inconclusive [inhibitor, single point]"}
{"compound": "C=CCN(C(=O)c1ccccc1)C1CCS(=O)(=O)C1", "note": "(stereo not given)", "activity change, negative = growth inhibition": "inactive: 9.11%"}
{"compound": "COc1ccc(-c2cnc(C)o2)cc1S(=O)(=O)Nc1ccc(NC(C)=O)cc1", "activity change, negative = growth inhibition": "inactive: -5.53%"}
{"compound": "CCn1c(=O)c(C(=O)NNC(=O)Cc2ccccc2)c(O)c2ccccc21", "Potency": "inconclusive [inhibitor, single point]"}
{"compound": "Cc1cc(C)cc(Cn2cc(CN3CC(N4CCN(CCO)CC4)CS3(=O)=O)nn2)c1", "note": "(stereo not given)", "activity change, negative = growth inhibition": "inactive: -2.23%"}
{"compound": "CCOC(=O)[C@]12CCCC=C1N(Cc1ccc(Cl)cc1Cl)C(=O)[C@H](CC(=O)NCC1CCCCC1)C2", "Potency": "inconclusive [inhibitor, single point]"}
{"compound": "c1coc(Cn2c(-c3ccco3)nc3ccccc32)c1", "Potency": "inconclusive [inhibitor, single point]"}
{"compound": "COC(=O)N/N=C\\c1c(C)nn(-c2ccccc2)c1Cl", "activity change, negative = growth inhibition": "inactive: -10.9%"}
{"compound": "Cc1c(C(=O)N2CCCCC2)c(S(=O)(=O)N(C)Cc2ccccc2)c(C)n1C", "activity change, negative = growth inhibition": "inactive: 4.05%"}
{"compound": "Cc1ccc(NC(=S)Nc2ccc(OC(F)F)c(Cl)c2)cc1F", "Potency": "inconclusive [inhibitor, single point]"}
{"compound": "CN1C(=O)N(C)C2(C)CC1(C)N(C)C(=O)N2C", "activity change, negative = growth inhibition": "inconclusive: -20.1% [inhibitor]"}
{"compound": "O=C(Nc1ccc(Cc2ccncc2)cc1)c1ccc(Cl)c([N+](=O)[O-])c1", "Potency": "active: 18.4 µM"}
{"compound": "CO/N=C/C(=N\\Nc1ccc(C)cc1)C(=O)c1ccc(OC)cc1", "Potency": "active: 3.26 µM"}
{"compound": "Cc1ccsc1CCNC(=O)C1CCC(=O)N(CCc2cccc(F)c2)C1", "note": "(stereo not given)", "Potency": "inconclusive [inhibitor, single point]"}
{"compound": "NC(=O)[C@H]1CC2(CC(c3cccc(NC(=O)[C@H]4CCC(=O)N4)c3)=NO2)CN1C(=O)c1ccccc1", "note": "(stereo not given in full)", "activity change, negative = growth inhibition": "inactive: 0.0872%"}
{"compound": "CN(CC(=O)Nc1cccc(F)c1)C(=O)c1ccccc1Sc1ccccc1C#N", "Potency": "inconclusive [inhibitor, single point]"}
{"compound": "CCC(=O)N1CCCc2ccccc21", "activity change, negative = growth inhibition": "inactive: 3.1%"}
{"compound": "COc1cc2[nH]c3c(=O)n(CCN(C(C)C)C(C)C)cnc3c2cc1OC", "Potency": "inconclusive [inhibitor, full curve, poor fit]"}
{"compound": "Cc1ccc(-c2cc(C(=O)Oc3ccc(C#N)cc3)no2)cc1", "Potency": "inconclusive [inhibitor, partial curve, poor fit]"}
{"compound": "Cc1ccc(NC2=Nc3ccccc3N3C2=Nc2c(c(C)nn2-c2ccccc2)C3c2ccc(O)c(O)c2)cc1", "note": "(stereo not given)", "Potency": "inconclusive [inhibitor, single point]"}
{"compound": "O=C(NC1Cc2ccccc2C1)c1cc(COc2cccc(C(F)(F)F)c2)on1", "activity change, negative = growth inhibition": "inactive: -11.7%"}
{"compound": "Cc1cccc(C(=O)NNC(=O)c2c(-c3ccccc3Cl)noc2C)c1O", "Potency": "active: 29.1 µM"}
{"compound": "Cc1cc2nc(-c3cccc(Br)c3)c(CC3CCCCC3)n2c(C)c1Br", "Potency": "inconclusive [inhibitor, partial curve]"}
{"compound": "O=C(CSc1nc(=O)[nH]c2c1CCC2)NCc1ccccc1Cl", "activity change, negative = growth inhibition": "inactive: -11.3%"}
{"compound": "O=C(N/N=C/c1cccc(F)c1)c1cc(-c2ccco2)nc2ccccc12", "Potency": "active: 10.3 µM"}
{"compound": "Cc1nc2ccccc2c(=O)n1-c1ccc(NC(=O)c2ccccc2[N+](=O)[O-])cc1", "Potency": "active: 23.1 µM"}
{"compound": "O=C(CSc1nc(-c2ccccc2Cl)ns1)NCc1ccc2c(c1)OCO2", "activity change, negative = growth inhibition": "inconclusive: -31.3% [inhibitor]"}
{"compound": "CCn1c(SCC(=O)Nc2cc(C)c(Cl)cc2OC)nnc1-c1ccco1", "Potency": "inconclusive [inhibitor, partial curve, poor fit]"}
{"compound": "CCN(Cc1ccccc1)C(=O)Cn1c(=O)n(-c2ccccc2)c(=O)c2c1c1cc(C)ccc1n2C", "Potency": "active: 3.66 µM"}
{"compound": "NC(=O)CSc1nnc(-c2ccco2)n1-c1ccc(F)cc1", "Potency": "inconclusive [inhibitor, full curve]"}
{"compound": "CC(=O)OC1CC2(C)/C(=N\\O)CCC2C2CCc3cc(O)ccc3C12", "note": "(stereo not given)", "activity change, negative = growth inhibition": "inactive: 3.15%"}
{"compound": "CC1(C(=O)N2CCN(c3ccc([N+](=O)[O-])cc3)CC2)CC1(Cl)Cl", "note": "(stereo not given)", "Potency": "inconclusive [inhibitor, single point]"}
{"compound": "O=C(NCc1cccc(C(F)(F)F)c1)c1[nH]c(C(F)(F)F)nc1-c1ccccc1", "Potency": "inconclusive [inhibitor, single point]"}
{"compound": "COCCN(C(=O)COC(=O)C12CC3CC(CC(C3)C1)C2)c1c(N)n(Cc2ccccc2)c(=O)[nH]c1=O", "Potency": "inconclusive [inhibitor, single point]"}
{"compound": "COc1ccccc1Nc1nc(N)nc(CN2CCCCC2)n1", "activity change, negative = growth inhibition": "inactive: -6.53%"}
{"compound": "COC(=O)CN1C(=O)c2cccc3cccc1c23", "activity change, negative = growth inhibition": "inactive: 12.9%"}
{"compound": "Cc1cc(C)n(Cc2ccc(C(=O)Nc3cccc(Br)c3)o2)n1", "Potency": "inconclusive [inhibitor, single point]"}
{"compound": "Cc1nn(-c2ccccc2)c(C)c1C(=O)NCc1ccccc1F", "activity change, negative = growth inhibition": "inactive: 5.44%"}
{"compound": "Cc1cc(=O)oc2c(C)c(OCC(=O)Nc3cccnc3)ccc12", "activity change, negative = growth inhibition": "inactive: 3.55%"}
{"compound": "COc1ccc(OC(=O)c2nc(SCc3ccccc3F)ncc2Cl)cc1", "activity change, negative = growth inhibition": "inactive: -21.8%"}
{"compound": "O=C(O)c1ccc2ccc3ccccc3c2c1", "activity change, negative = growth inhibition": "inactive: 0.859%"}
{"compound": "CCC(C)NC(=O)c1nn(-c2ccc(C)cc2)nc1CO", "note": "(stereo not given)", "activity change, negative = growth inhibition": "inactive: -9.79%"}
{"compound": "O=Cc1c[nH]c2ccc(OCc3ccccc3)cc12", "activity change, negative = growth inhibition": "inactive: -19.3%"}
{"compound": "O=C(N/N=C/c1c[nH]c2ccccc12)C1CC(=O)N(c2ccccc2)C1", "note": "(stereo not given)", "activity change, negative = growth inhibition": "inactive: 2.12%"}
{"compound": "CCOc1ccc(Cl)cc1-c1cc(C(=O)NCCc2ccncc2)[nH]n1", "activity change, negative = growth inhibition": "inactive: -104%"}
{"compound": "C/C(CC(C)C)=N\\Oc1nc(C)cc(C)n1", "activity change, negative = growth inhibition": "inactive: -3.44%"}
{"compound": "Cc1nn(Cc2ccc(Cl)c(Cl)c2)c(C)c1NC(=O)c1cc(CC(C)C)on1", "Potency": "active: 23.1 µM"}
{"compound": "COc1ccc(/C=N/NC(=O)c2cccc(C(=O)N/N=C/c3ccc(OC)c(OC)c3)n2)cc1OC", "activity change, negative = growth inhibition": "inactive: -7.3%"}
{"compound": "Cn1c(SCc2ccc(Br)cc2)nnc1-c1ccccn1", "Potency": "inconclusive [inhibitor, single point]"}
{"compound": "COc1ccc(N2CCN(C(=O)c3ccc(C)c(NC(=O)c4ccco4)c3)CC2)cc1", "Potency": "inconclusive [inhibitor, partial curve]"}
